# From PubChem BioAssay AID504832 (National Center for Advancing Translational Sciences (NCATS), 2011)
# The campaign covered roughly 310,000 compounds. About 18,000 (5.8%) were called active. This list was built around the results that the source calls inconclusive (neither active nor inactive); the mix of calls is not that of the screen. Calls come from the whole dose curve; as a rule, active = well fitted inhibition curve with a large enough effect; inconclusive = small, poorly fitted or top-dose-only effect, or another doubt; inactive = no such curve, though single readings can be large or run the other way. No potency is given beside an inconclusive call; the fits are too rough.
# Experiment: Primary qHTS for delayed death inhibitors of the malarial parasite plastid, 48 hour incubation
# Conditions: P. falciparum luciferase growth in erythrocytes; series mostly up to 28.7 µM
# Procedure, shortened: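 Erythrocytes infected with P. falciparum carrying an integrated firefly luciferase reporter (2% hematocrit, 0.1% parasitemia final) were exposed to compounds in RPMI 1640 with 0.5% Albumax at 37 C, 5% CO2. Growth inhibition was scored as reduced luminescence.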
# Potency is the fitted concentration of half-maximal effect; tags give direction and shape of the fitted curve.
row,SMILES,Potency
1,CCC/C(O)=C1\C(=O)CC(C)(C)CC1=Nc1ccc(OC)cc1OC,"inconclusive [inhibitor, partial curve, poor fit]"
2,O=C(O)c1cccc(-n2cccc2/C=C2\NC(=O)N(Cc3ccc(F)cc3)C2=O)c1,"inconclusive [inhibitor, partial curve, poor fit]"
3,O=C(COC(=O)c1cc([N+](=O)[O-])ccc1NCCO)c1ccccc1,"inconclusive [inhibitor, single point]"
4,CCC1OC(=O)CC(O)C(C)[C@@H](O[C@@H]2OC(C)[C@H](O[C@@H]3C[C@@](C)(O)C(O)C(C)O3)C(N(C)C)C2O)[C@H](CC=O)CC(C)C(=O)/C=C/C(C)=C/[C@@H]1COC1OC(C)C(O)C(OC)[C@@H]1OC (stereo partly drawn),"inconclusive [inhibitor, partial curve]"
5,C=C(C)C1CC=C(C)/C(=N\NC(=S)Nc2ccc(C)cc2)C1 (stereo not drawn),active: 14.7 µM
6,CN(Cc1ccccc1N1CCCC1)C(=O)c1cc2cc(Cl)ccc2o1,"inconclusive [inhibitor, single point]"
7,CC(O/N=C\c1ccccc1O)C(=O)Nc1ccccc1C(=O)N1CCOCC1 (stereo not drawn),"inconclusive [inhibitor, single point]"
8,O=C(COC(=O)c1ccc(-c2ccc([N+](=O)[O-])cc2)o1)NC(=O)NC1CCCCC1,inactive
9,Cc1cc(C(=O)N2CCC(C(=O)O)CC2)c(C(F)(F)F)o1,"inconclusive [inhibitor, single point]"
10,Cc1ccccc1/C=C/c1nc2ccccc2c(=O)n1CCc1ccccc1,active: 13.1 µM
11,CCCNC(=O)C(Cc1ccc(C(F)(F)F)cc1)NC(=O)c1ccc2ccccc2n1 (stereo not drawn),inactive
12,CC(C)c1nc2oc3c(NCC4CCCO4)ncnc3c2c2c1COC(C)(C)C2 (stereo not drawn),"inconclusive [inhibitor, full curve, poor fit]"
13,CCOC(=O)N/N=C\c1ccccc1OC/C=C/c1ccccc1,active: 2.94 µM
14,CCOc1ccc(N2CC(C(=O)NNC(=O)c3ccc(Br)cc3)CC2=O)cc1 (stereo not drawn),inactive
15,CCC(CC)NC(=O)COn1nnc2ccc(S(=O)(=O)N3CCOCC3)cc21,inactive
16,Cc1cccc(Nc2nc(NCC3CCCO3)nc(N)c2[N+](=O)[O-])c1 (stereo not drawn),inactive
17,CC(C)(C)c1cc(C(=O)N/N=C/c2ccc([N+](=O)[O-])s2)n[nH]1,"inconclusive [inhibitor, full curve, poor fit]"
18,COc1ccccc1NC(=O)c1cc2c(CO)cnc(C)c2oc1=Nc1cccc(C(N)=O)c1,inactive
